From the supplement of paper PMC8728848
The list shows a part of the results.

Key:
Experiment in all cases: glycan array binding signal (z-score within array); higher = stronger binding
Settings in all cases: glycan notation: IUPAC condensed, linker removed
Gal3S(b1-4)Glc = target: Gal3S(b1-4)Glc
Method in brief: (§1)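 The Consortium for Functional Glycomics database supplied 3228 glycan arrays, of which those lacking an available protein sequence were dropped. The binding signal, a within-array Z-score, was averaged across arrays of the same protein sequence and across linkers. Negative scores can be read as non-binding.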

Gal3S(b1-4)Glc6S = target: Gal3S(b1-4)Glc6S
Method in brief: as §1

Gal3S(b1-4)GlcNAc = target: Gal3S(b1-4)GlcNAc
Method in brief: as §1

[1] = target: Gal3S(b1-4)[Fuc(a1-3)]Glc6S
Method in brief: as §1

[2] = target: Gal3S(b1-4)[Fuc(a1-3)]GlcNAc
Method in brief: as §1

[3] = target: Gal3S(b1-4)[Fuc(a1-3)]GlcNAc6S
Method in brief: as §1

Gal3S4S(b1-4)GlcNAc = target: Gal3S4S(b1-4)GlcNAc
Method in brief: as §1

Gal3S6S(b1-4)GlcNAc = target: Gal3S6S(b1-4)GlcNAc
Method in brief: as §1

Gal3S6S(b1-4)GlcNAc6S = target: Gal3S6S(b1-4)GlcNAc6S
Method in brief: as §1

Gal4S(b1-4)GlcNAc = target: Gal4S(b1-4)GlcNAc
Method in brief: as §1

Gal4S6S(b1-4)GlcNAc = target: Gal4S6S(b1-4)GlcNAc
Method in brief: as §1

Gal6P(b1-4)GlcNAc = target: Gal6P(b1-4)GlcNAc
Method in brief: as §1

Gal6S(b1-3)GlcNAc = target: Gal6S(b1-3)GlcNAc
Method in brief: as §1

Gal6S(b1-3)GlcNAc6S = target: Gal6S(b1-3)GlcNAc6S
Method in brief: as §1

Gal6S(b1-4)Glc = target: Gal6S(b1-4)Glc
Method in brief: as §1

Gal6S(b1-4)Glc6S = target: Gal6S(b1-4)Glc6S
Method in brief: as §1

Gal6S(b1-4)GlcNAc = target: Gal6S(b1-4)GlcNAc
Method in brief: as §1

Gal6S(b1-4)GlcNAc6S = target: Gal6S(b1-4)GlcNAc6S
Method in brief: as §1

GalNAc(a1-3)Gal = target: GalNAc(a1-3)Gal
Method in brief: as §1

GalNAc(a1-3)GalNAc = target: GalNAc(a1-3)GalNAc
Method in brief: as §1

[4] = target: GalNAc(a1-3)GalNAc(b1-3)Gal(a1-4)Gal(b1-4)Glc
Method in brief: as §1

[5] = target: GalNAc(a1-3)GalNAc(b1-3)Gal(a1-4)Gal(b1-4)GlcNAc
Method in brief: as §1

GalNAc(b1-3)Gal = target: GalNAc(b1-3)Gal
Method in brief: as §1

[6] = target: GalNAc(b1-3)Gal(a1-4)Gal(b1-4)GlcNAc
Method in brief: as §1

[7] = target: GalNAc(b1-3)Gal(a1-4)Gal(b1-4)GlcNAc(b1-3)Gal(b1-4)Glc
Method in brief: as §1

[8] = target: GalNAc(b1-3)Gal(a1-6)Gal(b1-4)Glc
Method in brief: as §1

GalNAc(b1-3)GalNAc = target: GalNAc(b1-3)GalNAc
Method in brief: as §1

GalNAc(b1-3)GlcNAc = target: GalNAc(b1-3)GlcNAc
Method in brief: as §1

GalNAc(b1-4)Gal(b1-4)Glc = target: GalNAc(b1-4)Gal(b1-4)Glc
Method in brief: as §1

GalNAc(b1-4)GlcNAc = target: GalNAc(b1-4)GlcNAc
Method in brief: as §1

[9] = target: GalNAc(b1-4)GlcNAc(b1-2)Man
Method in brief: as §1

[10] = target: GalNAc(b1-4)GlcNAc(b1-2)Man(a1-3)[GalNAc(b1-4)GlcNAc(b1-2)Man(a1-6)]Man(b1-4)GlcNAc(b1-4)GlcNAc
Method in brief: as §1

[11] = target: GalNAc(b1-4)GlcNAc(b1-3)GalNAc(b1-4)GlcNAc
Method in brief: as §1

GalNAc(b1-4)GlcNAc6S = target: GalNAc(b1-4)GlcNAc6S
Method in brief: as §1

GalNAc(b1-6)GalNAc = target: GalNAc(b1-6)GalNAc
Method in brief: as §1

GalNAc3S(b1-4)GlcNAc = target: GalNAc3S(b1-4)GlcNAc
Method in brief: as §1

GalNAc3S(b1-4)GlcNAc3S = target: GalNAc3S(b1-4)GlcNAc3S
Method in brief: as §1

B1: LecRKVI.2 (protein)
chain: RTTTNFAFRGFNGNQSKIRIEGAAMIKPDGLLRLTDRKSNVTGTAFYHKPVRLLNRNSTNVTIRSFSTSFVFVIIPSSSSNKGFGFTFTLSPTPYRLNAGSAQYLGVFNKENNGDPRNHVFAVEFDTVQGSRDDNTDRIGNDIGLNYNSRTSDLQEPVVYYNNDDHNKKEDFQLESGNPIQALLEYDGATQMLNVTVYPARLGFKPTKPLISQHVPKLLEIVQEEMYVGFTASTGKGQSSAHYVMGWSFSSGGERPIADVLILSELPPPPPNKAKKEGLNS
- glycan array binding signal (z-score) (Gal3S(b1-4)Glc): -0.237
- glycan array binding signal (z-score) (Gal3S(b1-4)Glc6S): -0.285
- glycan array binding signal (z-score) (Gal3S(b1-4)GlcNAc): -0.354
- glycan array binding signal (z-score) [1]: 1.27
- glycan array binding signal (z-score) [2]: -0.386
- glycan array binding signal (z-score) [3]: -0.29
- glycan array binding signal (z-score) (Gal3S4S(b1-4)GlcNAc): -0.399
- glycan array binding signal (z-score) (Gal3S6S(b1-4)GlcNAc): -0.344
- glycan array binding signal (z-score) (Gal3S6S(b1-4)GlcNAc6S): -0.298
- glycan array binding signal (z-score) (Gal4S(b1-4)GlcNAc): -0.292
- glycan array binding signal (z-score) (Gal4S6S(b1-4)GlcNAc): -0.352
- glycan array binding signal (z-score) (Gal6P(b1-4)GlcNAc): 0.267
- glycan array binding signal (z-score) (Gal6S(b1-3)GlcNAc): 0.647
- glycan array binding signal (z-score) (Gal6S(b1-3)GlcNAc6S): -0.041
- glycan array binding signal (z-score) (Gal6S(b1-4)Glc): -0.163
- glycan array binding signal (z-score) (Gal6S(b1-4)Glc6S): -0.354
- glycan array binding signal (z-score) (Gal6S(b1-4)GlcNAc): -0.265
- glycan array binding signal (z-score) (Gal6S(b1-4)GlcNAc6S): -0.138
- glycan array binding signal (z-score) (GalNAc(a1-3)Gal): 3.89
- glycan array binding signal (z-score) (GalNAc(a1-3)GalNAc): -0.315
- glycan array binding signal (z-score) [4]: -0.362
- glycan array binding signal (z-score) [5]: -0.332
- glycan array binding signal (z-score) (GalNAc(b1-3)Gal): 0.446
- glycan array binding signal (z-score) [6]: -0.271
- glycan array binding signal (z-score) [7]: -0.106
- glycan array binding signal (z-score) [8]: -0.316
- glycan array binding signal (z-score) (GalNAc(b1-3)GalNAc): -0.415
- glycan array binding signal (z-score) (GalNAc(b1-3)GlcNAc): 0.105
- glycan array binding signal (z-score) (GalNAc(b1-4)Gal(b1-4)Glc): -0.332
- glycan array binding signal (z-score) (GalNAc(b1-4)GlcNAc): 0.038
- glycan array binding signal (z-score) [9]: 0.196
- glycan array binding signal (z-score) [10]: 0.707
- glycan array binding signal (z-score) [11]: -0.258
- glycan array binding signal (z-score) (GalNAc(b1-4)GlcNAc6S): -0.305
- glycan array binding signal (z-score) (GalNAc(b1-6)GalNAc): -0.445
- glycan array binding signal (z-score) (GalNAc3S(b1-4)GlcNAc): -0.314
- glycan array binding signal (z-score) (GalNAc3S(b1-4)GlcNAc3S): -0.321
